{"source": "PubChem BioAssay AID686978", "about": "(National Center for Advancing Translational Sciences (NCATS), 2013)", "note": "Several values for one entry are separate records, joined by “and”; a condition that tells them apart may be missing. Equal values may be shown once. About 64,000 (15%) of roughly 420,000 compounds were called active. Inconclusive means that the source gave no clear call. Such entries were picked first, then a sample of the others. The call rests on the fitted dose curve; in most records, active means well fitted inhibition curve with a large enough effect; inconclusive means small, poorly fitted or top-dose-only effect; inactive means flat fitted curve, though single readings scatter. A potency beside an inconclusive call is a rough fit, not a confirmed value. On the % scale 0 is the no-effect control and ±100 the full control effect; potency means the concentration at half of the fitted maximal effect; tags describe the fitted curve by direction and shape.", "data": [{"assay": "qHTS for Inhibitors of human tyrosyl-DNA phosphodiesterase 1 (TDP1): qHTS in cells in absence of CPT; further: nearly all actives have a fitted effect of over 55% in size", "settings": "DT40 Tdp1-/- hTDP1 cells, no CPT, ATP luminescence, 48 h; activity change, negative = growth inhibition: at 46.2 µM (top of the series) unless noted", "procedure,_shortened": "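A cellular qHTS used chicken DT40 cells lacking endogenous Tdp1 but carrying stably transfected human TDP1. Compounds were applied without camptothecin, and cell growth kinetics were judged by ATP-dependent luminescence after ≥48 hr.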", "values": [{"compound": "COC(=O)Nc1nnc(-c2ccncc2)s1", "activity change, negative = growth inhibition": "inactive: -28.8%"}, {"compound": "CCOC(=O)c1ccc(NC(=O)CCC(=O)N2Cc3ccccc3Oc3ncccc32)cc1", "Potency": "active: 20.6 µM"}, {"compound": "OC(c1cc(F)cc(Cl)c1)c1ncc(-c2ccccc2Cl)[nH]1", "note": "(stereo unspecified)", "Potency": "inconclusive: 29.1 µM [inhibitor, single point]"}, {"compound": "COc1ccc(NC(=S)N2CCN(C)CC2)cc1", "activity change, negative = growth inhibition": "inactive: 3.66%"}, {"compound": "CCC(=O)N1CCN(c2ccc(NC(=O)c3cc4ccccc4o3)cc2Cl)CC1", "Potency": "active: 13 µM"}, {"compound": "Cc1ccc(S(=O)(=O)N(C)c2ccc(C(=O)Nc3ccc(C)cn3)cc2)cc1", "Potency": "inconclusive: 18.4 µM [inhibitor, single point]"}, {"compound": "O=C(NC1CCCCC1)c1ccc(CSc2nc3cccnc3n2Cc2ccc(F)cc2)cc1", "Potency": "active: 13 µM"}, {"compound": "CC1(C)Cc2cccc(OCC(=O)Nc3ccc(S(N)(=O)=O)cc3)c2O1", "activity change, negative = growth inhibition": "inactive: -28.2%"}, {"compound": "CC(C)C[C@H]1CNC(=O)C(=O)N1C[C@@H]1CCCN1C[C@H](Cc1ccccc1)N1C[C@H](CC(C)C)N(CC2CCCCCC2)C(=O)C1=O", "activity change, negative = growth inhibition": "inactive: -20.9%"}, {"compound": "C#CCN(CC=C)C(=O)c1ccc2nc(C3CCCCC3)oc2c1", "Potency": "inconclusive: 29.1 µM [inhibitor, single point]"}, {"compound": "Cc1cccc(-n2c(Cc3ccccc3)nnc2SCc2nc(-c3cccs3)no2)c1", "Potency": "inconclusive: 23.1 µM [inhibitor, single point]"}, {"compound": "COc1ccc(C(O)P(=O)(OCc2ccccc2)c2ccc(N(C)C)cc2)cc1", "note": "(stereo unspecified)", "Potency": "inconclusive: 18.4 µM [inhibitor, single point]"}, {"compound": "CC(C)NC(=O)Nc1ccc2c(c1)C(=O)N([C@@H](C)CO)C[C@@H](C)[C@H](CN(C)Cc1ccccc1)OCCCC[C@H](C)O2", "Potency": "inconclusive: 29.1 µM [inhibitor, single point]"}, {"compound": "O=C1c2[nH]nc(-c3ccccc3O)c2C(c2ccccc2F)N1Cc1cccnc1", "note": "(stereo unspecified)", "Potency": "inconclusive: 29.1 µM [inhibitor, single point]"}, {"compound": "COCCCNC(=O)c1cc2c(-c3ccc(Cl)cc3)nn(C)c2s1", "Potency": "inconclusive: 29.1 µM [inhibitor, single point]"}, {"compound": "COC(=O)c1ccc(NC(=O)CSCc2ccccc2C)cc1", "Potency": "inconclusive: 23.1 µM [inhibitor, single point]"}, {"compound": "CC(C)(C)c1ccc(OCC(O)CN2CCN(c3ccccn3)CC2)cc1", "note": "(stereo unspecified)", "Potency": "inconclusive: 29.1 µM [inhibitor, single point]"}, {"compound": "O=C(NCc1ccco1)C1CCN(S(=O)(=O)Cc2ccccc2)CC1", "activity change, negative = growth inhibition": "inactive: 6.84%"}, {"compound": "COC(=O)c1c(C(=O)OC)c2ccccn2c1C(=O)c1ccccc1", "Potency": "inconclusive: 4.61 µM [inhibitor, single point]"}, {"compound": "Cc1nc(N)sc1N=Nc1ccc(F)cc1", "Potency": "inconclusive: 23.1 µM [inhibitor, single point]"}, {"compound": "COCCNc1ccc(-c2nc(-c3ccco3)no2)cc1[N+](=O)[O-]", "Potency": "inconclusive: 16.4 µM [inhibitor, single point]"}, {"compound": "CCOC(=O)CCCNC(=O)COC(=O)[C@@H]1CCCN1S(=O)(=O)c1ccc(Cl)cc1", "activity change, negative = growth inhibition": "inactive: -24.1%"}, {"compound": "O=C(NC1CCCCC1)C1CCCN(c2nnnn2-c2ccccc2)C1", "note": "(stereo unspecified)", "activity change, negative = growth inhibition": "inactive: -12.5%"}, {"compound": "Oc1ccc(N=Nc2ccc3c(c2)OCCO3)c2cccnc12", "Potency": "active: 1.64 µM"}, {"compound": "Cc1cccc(Nc2nnc(-c3ccc(C)c(S(=O)(=O)NCC4CCCO4)c3)c3ccccc23)c1", "note": "(stereo unspecified)", "Potency": "active: 6.51 µM"}, {"compound": "CCOC(=O)c1ccc(N2C(=O)c3n[nH]c(-c4ccco4)c3C2c2ccc(O)c(OCC)c2)cc1", "note": "(stereo unspecified)", "Potency": "active: 14.6 µM"}, {"compound": "COc1ccc(NC(=O)CS(=O)(=O)Cc2nc(-c3ccc(C)cc3)oc2C)cc1", "activity change, negative = growth inhibition": "inactive: -2.42%"}, {"compound": "Cc1c(C(=O)NN2CCOCC2)nn(-c2ccc(Cl)cc2Cl)c1-c1ccc(I)cc1", "activity change, negative = growth inhibition": "inactive: 0.929%"}, {"compound": "CC(=O)c1ccc(NC(=O)c2cc(Cl)nc3ccccc23)cc1", "Potency": "inconclusive: 29.1 µM [inhibitor, single point]"}, {"compound": "O=S(=O)(NCc1csc(-c2cccs2)n1)c1ccc(Cl)cc1", "Potency": "inconclusive: 23.1 µM [inhibitor, single point]"}, {"compound": "O=C(Cn1cnc2ccccc2c1=O)NCC1COc2ccccc2O1", "note": "(stereo unspecified)", "activity change, negative = growth inhibition": "inactive: 0.328%"}, {"compound": "O=C(/C=C/c1ccccc1Cl)NCc1ccco1", "activity change, negative = growth inhibition": "inconclusive: -40% [inhibitor]"}, {"compound": "COc1ccc(C(O)c2nc(-c3cncnc3)cs2)cc1", "note": "(stereo unspecified)", "Potency": "inconclusive: 10.3 µM [inhibitor, single point]"}, {"compound": "O=C(CN1CCCCCC1)Nc1ccc(Cl)cc1F", "Potency": "inconclusive: 6.51 µM [inhibitor, single point]"}, {"compound": "CCCCNCCS(=O)(=O)NCc1ccccc1", "activity change, negative = growth inhibition": "inactive: -17.8%"}, {"compound": "COc1cccc(/C=N/NC(=O)c2[nH]c(C)c(C(=O)N/N=C/c3cccc(OC)c3)c2C)c1", "Potency": "inconclusive: 13 µM [inhibitor, partial curve]"}, {"compound": "CCN(CC(=O)NCc1ccc(F)cc1)CC(=O)Nc1ccc(S(=O)(=O)N2CCCC2)cc1", "activity change, negative = growth inhibition": "inactive: -1.62%"}, {"compound": "O=C(NCCSCc1c(F)cccc1Cl)c1ccc(CN2CCOCC2)cc1", "Potency": "inconclusive: 29.1 µM [inhibitor, single point]"}, {"compound": "COc1ccc(-c2cc(=O)c3ccc(O)cc3o2)cc1", "Potency": "inconclusive: 18.8 µM [inhibitor, partial curve] and inconclusive: 20.6 µM [inhibitor, partial curve]"}, {"compound": "COc1cccc(-c2ccc(NC(=O)C3CCCN(Cc4cnc(C)s4)C3)cc2)c1", "note": "(stereo unspecified)", "Potency": "inconclusive: 20.6 µM [inhibitor, single point]"}, {"compound": "COc1cc(-c2nnc3sc(Cc4ccccc4)nn23)cc(OC)c1OC", "Potency": "inconclusive: 18.4 µM [inhibitor, single point]"}, {"compound": "O=[N+]([O-])c1cc(Cl)ccc1N1CCCCC1", "activity change, negative = growth inhibition": "inactive: -13.4%"}, {"compound": "O=C(Nc1cc(C(F)(F)F)ccc1N1CCOCC1)c1n[nH]c(=O)c2ccccc12", "Potency": "inconclusive: 29.1 µM [inhibitor, partial curve]"}, {"compound": "CC(C)CNC(=O)CSc1nnc(-c2ccccn2)n1Cc1ccccc1", "activity change, negative = growth inhibition": "inactive: -12.2%"}, {"compound": "COc1ccc(S(=O)(=O)Nc2ccc(N3CCOCC3)cc2)cc1Br", "Potency": "inconclusive: 29.1 µM [inhibitor, single point]"}, {"compound": "Cc1ccc(/C=N/NC(=O)CNC(=O)COc2ccccc2)o1", "activity change, negative = growth inhibition": "inactive: -24.7%"}, {"compound": "Cc1ccc(NC(=O)c2c(C)noc2C)cc1S(=O)(=O)N1CCOCC1", "activity change, negative = growth inhibition": "inactive: -4.19%"}, {"compound": "Cc1nc2ccccc2c(=O)n1/N=C/c1ccco1", "activity change, negative = growth inhibition": "inactive: -2.29%"}, {"compound": "Cc1cccc(Nc2nnc(SCC3CCCCO3)s2)c1", "note": "(stereo unspecified)", "Potency": "inconclusive: 25.9 µM [inhibitor, single point]"}, {"compound": "COc1cc(C=O)ccc1OCc1ccccc1Br", "activity change, negative = growth inhibition": "inconclusive: -31.6% [inhibitor]"}, {"compound": "Cc1cc(C)cc(NC(=S)NN)c1", "activity change, negative = growth inhibition": "inactive: -23.2%"}, {"compound": "CCC/C(=N\\NC(=O)CCC(=O)NCc1ccccc1)c1ccccc1", "Potency": "inconclusive: 14.6 µM [inhibitor, partial curve, poor fit]"}, {"compound": "O=C(CN1CCN(C(=O)c2ccco2)CC1)Nc1ccc(F)cc1F", "activity change, negative = growth inhibition": "inactive: 15.7%"}, {"compound": "Cc1[nH]c(=O)[nH]c(=O)c1S(=O)(=O)N1CCN(c2ccccc2Cl)CC1", "activity change, negative = growth inhibition": "inactive: -1.5%"}, {"compound": "C=CC(=O)N1CCCC(Nc2nc(Nc3ccc(N(C)C(=O)CC)cc3C)nc3nc[nH]c23)C1", "note": "(stereo unspecified)", "activity change, negative = growth inhibition": "inactive: -11.6%"}, {"compound": "COc1ccc(C2=NN(c3ccccc3)C(c3cccs3)C2)cc1", "note": "(stereo unspecified)", "Potency": "inconclusive: 20.6 µM [inhibitor, single point]"}, {"compound": "CCN(CC)S(=O)(=O)c1ccc(Cl)c(C(=O)Nc2ccc(Cl)cc2[N+](=O)[O-])c1", "Potency": "active: 4.61 µM"}, {"compound": "O=C(NCC1Cc2cc(-c3cnc4ccccc4c3)cc(F)c2O1)c1cnsn1", "note": "(stereo unspecified)", "activity change, negative = growth inhibition": "inactive: -18.5%"}, {"compound": "OC(CNC1CCCC1)COc1ccc(-c2ccccc2)cc1", "note": "(stereo unspecified)", "Potency": "inconclusive: 29.1 µM [inhibitor, single point]"}, {"compound": "CCOC(=O)c1cc(-c2ccccc2)n(CCCC(=O)Nc2cccc(C)c2C)c1C", "Potency": "inconclusive: 23.1 µM [inhibitor, single point]"}, {"compound": "Cc1cccnc1NC(=O)c1ccc(Cl)c(S(=O)(=O)N2CCCC2)c1", "activity change, negative = growth inhibition": "inactive: 20.8%"}, {"compound": "COc1ccccc1CNC(=O)COC(=O)c1cccc(S(=O)(=O)N2CCCC2)c1", "activity change, negative = growth inhibition": "inactive: -18.1%"}, {"compound": "CC(CNC(=O)CCc1nnc2ccc(N3CCC4(CC3)OCCO4)nn12)c1ccccc1", "note": "(stereo unspecified)", "activity change, negative = growth inhibition": "inactive: 6.48%"}, {"compound": "COc1ccccc1C1CN(Cc2cn(C)nc2C)Cc2ccccc2O1", "note": "(stereo unspecified)", "activity change, negative = growth inhibition": "inactive: -28.3%"}, {"compound": "NC(=O)c1cccc(Nc2nc(C(N)C3CCCCC3)cs2)n1", "note": "(stereo unspecified)", "Potency": "inconclusive: 23.1 µM [inhibitor, single point]"}, {"compound": "COc1cccc(NC(=O)Nc2ccc3nc(C)c(C)nc3c2)c1", "Potency": "inconclusive: 8.2 µM [inhibitor, partial curve]"}, {"compound": "N#Cc1ccccc1Cn1c(=O)n(-c2cccc(C(F)(F)F)c2)c(=O)c2sccc21", "activity change, negative = growth inhibition": "inactive: -26.5%"}, {"compound": "CN(CC(=O)Nc1ccc(OC(F)(F)F)cc1)C(=O)Cc1c(Cl)cccc1Cl", "Potency": "inconclusive: 18.4 µM [inhibitor, single point]"}, {"compound": "O=C(C1CCCN(CCCc2ccccc2)C1)N1CCCCCC1", "note": "(stereo unspecified)", "activity change, negative = growth inhibition": "inactive: -25.4%"}, {"compound": "CCCCCN(C(=O)CCC(=O)OCC(=O)c1cccc(OC)c1)c1c(N)n(CCCC)c(=O)[nH]c1=O", "activity change, negative = growth inhibition": "inactive: 16.2%"}, {"compound": "C=C(C)Cn1c(NCCC)nc2c1c(=O)n(C)c(=O)n2C", "Potency": "inconclusive: 14.6 µM [inhibitor, partial curve, poor fit]"}, {"compound": "CCC1c2ccc(C)n2CCN1C(=O)Nc1ccccc1C(=O)OC", "note": "(stereo unspecified)", "Potency": "inconclusive: 25.9 µM [inhibitor, single point]"}, {"compound": "CCN=c1scc(C)n1/N=C/c1cc(Br)c(O)c(Br)c1", "Potency": "inconclusive: 13 µM [inhibitor, partial curve]"}, {"compound": "O=C1NC2=C(C(=O)OC2)C(c2ccc(OC(F)(F)F)cc2)N1", "note": "(stereo unspecified)", "activity change, negative = growth inhibition": "inactive: -0.957%"}, {"compound": "COc1cccc(C(=O)Nc2ccc3c(C)cc(=O)oc3c2)c1", "activity change, negative = growth inhibition": "inactive: 2.23%"}, {"compound": "COc1cccc(C(NC(C)=O)c2nc(-c3ccoc3)cs2)c1", "note": "(stereo unspecified)", "activity change, negative = growth inhibition": "inactive: -2.69%"}]}]}
